Experimental data taken from PubChem BioAssay AID493131 (Broad Institute, 2011).
The campaign covered roughly 340,000 compounds. About 3,300 (0.97%) were called active. The shares of active, inactive and inconclusive entries below differ from those in the screen.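 Rule for the calls: active = mean activation above about 17%, with every replicate also reaching it (limit read from the data, passing the limit was not always enough); inconclusive = only one of the two conditions met; inactive = the rest.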

Target: Protein FosB (Mus musculus) (UniProt P13346)
Chain of UniProt P13346 (P13346 whole entry, looked up): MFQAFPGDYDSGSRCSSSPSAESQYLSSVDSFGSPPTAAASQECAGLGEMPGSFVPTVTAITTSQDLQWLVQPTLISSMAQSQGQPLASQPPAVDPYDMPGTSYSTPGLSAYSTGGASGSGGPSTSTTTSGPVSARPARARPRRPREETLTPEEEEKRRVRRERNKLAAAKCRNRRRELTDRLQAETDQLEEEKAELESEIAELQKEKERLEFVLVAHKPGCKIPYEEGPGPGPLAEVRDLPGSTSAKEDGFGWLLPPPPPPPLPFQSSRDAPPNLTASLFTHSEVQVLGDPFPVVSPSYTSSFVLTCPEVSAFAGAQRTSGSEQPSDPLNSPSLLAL
Assay: enhancers of mouse delta FosB DNA binding – biochemical, fluorescence polarization, TAMRA-CDK5 oligo, single point, primary screen (AID 493131);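 note: fluorescence polarization rise as delta FosB binds a TAMRA Cdk5 AP-1 oligo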
Conditions: purified delta FosB, at 25 µM, active compounds read high, percent of positive-control signal above neutral wells

SMILES	activation
O=C(/C=C/c1ccc(Cl)cc1Cl)c1nc2ccccc2[nH]1	active: 39.8%
C/C(=C\C=C(C#N)C#N)c1cc(C#N)c(N)o1	active: 83.7%
CC1CN(Cc2nnc(-c3ccccc3)o2)CC(C)O1 (configuration not stated)	inactive: -8.22%
Nc1nonc1-n1nnc(C(=O)N/N=C/c2cccc(Cl)c2Cl)c1CN1CCCC1	inconclusive: 31.5%
C[C@H]1CN([C@@H](C)CO)C(=O)c2cccc(NC(=O)Nc3ccc(C(F)(F)F)cc3)c2O[C@@H]1CN(C)Cc1ccc(Cl)c(Cl)c1	inconclusive: 19.4%
CSc1nc2c(cnn2-c2ccc(C)c(C)c2)c(=O)[nH]1	inconclusive: 17.2%
COc1ccc(C2CC(=O)N3C(=C2C#N)SCC3(O)c2ccccc2)cc1 (configuration not stated)	inconclusive: 17.6%
O=C(N/N=C/c1cccc(Br)c1)c1ccc(N2CCCC2=O)cc1	active: 86.6%
O=[N+]([O-])c1cccc(/C=C/c2nc(C=Nc3ccc4ccccc4c3)c(O)o2)c1	inactive: -1.98%
COc1ccc(-c2nc(Cn3c(SCc4cccc(F)c4)nc4ccncc43)c(C)o2)cc1OC	inconclusive: 16.2%
c1ccc(-c2sc3ccccc3c2-c2ccc(OCCN3CCCCC3)cc2)cc1	inactive: 5.41%
Cc1ccc(C(=O)CC(C(=O)O)n2ccc(C)n2)cc1 (configuration not stated)	inactive: -0.683%
Nc1ccc(O)c(-c2nc3ccccc3s2)c1	inactive: -0.977%
COc1cc(C2c3cc4c(cc3OC(Nc3ccc(C(=O)O)cc3)C2C)OCO4)cc(OC)c1OC (configuration not stated)	inactive: -7.47%
CCN(CC)c1ccc(/C=C/c2ccc3ccc(OC)cc3[n+]2CC)cc1	inconclusive: 21%
O=C(NC(=O)c1ccccc1Cl)Nc1ccc(-c2cnco2)cc1	inconclusive: 48.1%
CCN1CCN(CCNC(=O)c2ccc3c(c2)NC(=O)/C(=C\c2ccc(OC)c(OC)c2)S3)CC1	inconclusive: 24.4%
COc1ccc2c(c1)CCc1c(C(=O)Nc3ccn(Cc4ccc(C)cc4)n3)noc1-2	active: 27.8%
O=[N+]([O-])c1cccc(S(=O)(=O)Nc2nc3ccccc3nc2Nc2cccc(S(=O)(=O)N3CCCCC3)c2)c1	inactive: -21%
CCOC(=O)[C@H]1[C@H]2COc3ccc(Br)cc3[C@@H]2N2C(=O)c3c(C)cc(C)cc3NC(=O)[C@@]12C	inconclusive: 17.2%
Brc1ccc(-c2nc(N/N=C/c3cccnc3)c3ccccc3n2)cc1	inconclusive: 20%

SMILES	activation
CCOC(=O)c1cc(NC(=O)Cc2ccc(S(=O)(=O)N3CCOCC3)s2)cc(C(=O)OCC)c1	inconclusive: 17.3%
COc1cccc(C2CC(c3c(-c4ccccc4)c4cc(Cl)ccc4[nH]c3=O)=NN2S(C)(=O)=O)c1OC (configuration not stated)	inconclusive: 17.4%
COc1ccc(/C=N/NC(=O)c2ccc3nc[nH]c3c2)cc1OC	inconclusive: 20.4%
Cc1cccc(NC(=O)CNC(=O)COc2ccc(-c3ccc(C#N)cc3)cc2)c1C	inconclusive: 20.2%
O=C(CN1C(=O)C2CC=CCC2C1=O)Nc1nnc(SCc2c(Cl)cccc2Cl)s1 (configuration not stated)	active: 38.8%
COc1cc(/C=N/NC(=O)c2cccnc2)ccc1OCC(=O)Nc1ccc(C)cc1	inconclusive: 16.9%
CCCOc1ccc(-c2c(C(=O)N/N=C/c3ccc(C)o3)nnn2-c2nonc2N)cc1	inconclusive: 25.3%
O=C(Nc1cccc([N+](=O)[O-])c1)c1cccc(C(=O)Nc2cccc([N+](=O)[O-])c2)c1	active: 33.7%
CC(C)COc1ccc(C(=O)Nc2ccc(NC(=O)c3ccco3)cc2)cc1	inconclusive: 16.8%
COc1cccc(NC(=O)Nc2nnc(CC(=O)NCc3ccccc3)s2)c1	active: 38.7%
Cc1ccc(Oc2nc3c(c(=O)n(Cc4ccccc4F)c(=O)n3C)n2C)cc1	inactive: -5.06%
O=C(Nc1ccccc1)Nc1cccc(NC(=O)Nc2ccccc2)c1F	inconclusive: 17%
CSc1ccc(S(=O)(=O)N2CCC(C(=O)Nc3ccc(C(N)=O)cc3)CC2)cc1	inconclusive: 19.6%
COc1ccc(CNC(=O)CSc2nc(-c3ccccc3)cc(-c3cccs3)c2C#N)cc1	inconclusive: 17.6%
O=C(O)C1CCN(c2nc(-c3ccccc3)nc3c2oc2ccccc23)CC1	inactive: -15.2%
O=C(O)c1cccc2c(/C=N/Nc3ccccn3)c[nH]c12	inactive: 4.45%
CCN(CC)c1ccc(/C=N/Nc2nc3ccccc3[nH]2)cc1	active: 38.8%
Cc1ccc(NS(=O)(=O)c2cc(NC(=O)c3ccc4c(c3)NC(=O)CS4)ccc2C)c(C)c1	inconclusive: 27.5%
Cc1cc(-c2nn(-c3ccccc3F)cc2CN2CCCC(O)C2)c(C)s1 (configuration not stated)	inactive: -6.54%
COCc1ccc(CN2CCC(C(=O)Nc3cccc(-c4cccc(Cl)c4)c3)CC2)o1	inconclusive: 17.7%
CCC(C)[C@H](N)c1cn([C@@H](Cc2cc3ccccc3[nH]2)C(=O)N2CCNCC2)nn1 (some centres not stated)	inconclusive: 18.3%

SMILES	activation
CCC(C)c1ccc(NC(=O)C2CCCN(c3ncccn3)C2)cc1 (configuration not stated)	inconclusive: 18.5%
COc1cc(C(=O)Nc2nc3ccc(C)cc3s2)ccc1OCc1c(C)noc1C	inconclusive: 16.1%
O=C(C[C@H]1C/C=C\C[C@@H](Cc2ccc(F)cc2)C(=O)OC[C@@H]2CCCN2C1=O)NCCO	inactive: -4.17%
CC(=O)Nc1ccc(NC(=O)C(=O)c2cn(CC(=O)N3CCCCC3)c3ccccc23)cc1	inconclusive: 17.5%
O=c1c(Cc2ccccc2)c(O)ccn1C1CCCCCCC1	inactive: -1.72%
O=C(CN1C(=O)S/C(=C\c2ccccn2)C1=O)Nc1ccc(F)cc1	active: 48.2%
Cc1ccc(S(=O)(=O)N2CCOCC2)cc1NC(=O)COC(=O)/C=C/c1ccc(F)cc1	active: 81.2%
CCc1cccc(C)c1NC(=O)CSc1nc2ccc(N3C(=O)c4ccccc4C3=O)cc2s1	inconclusive: 17.2%
Oc1ccc(/C=N/Nc2ccnc3cc(Cl)ccc23)c(O)c1	inconclusive: 20.1%
COc1ccc(C)cc1NC(=O)Cn1c(=O)oc2ccccc21	active: 18.8%
Oc1ccc(/C=C/c2nc(-c3ccccc3O)n(-c3ccccc3)n2)cc1	inactive: -10.7%
O=C(COC(=O)COc1ccc(Br)cc1)NCc1ccc2c(c1)OCO2	inconclusive: 16.4%
Cc1ccc(-n2nc3ccc(NC(=O)c4cccc([N+](=O)[O-])c4C)cc3n2)cc1	inconclusive: 16.1%
COc1ccc(-c2nsc(SCC(=O)Nc3cc(C)on3)n2)cc1	inconclusive: 16.5%
Cc1cc(C)nc(SCc2ccc(C(=O)NNC(=O)Nc3cccc(Cl)c3)cc2)n1	inconclusive: 18.5%
COc1ccccc1C(=O)Nc1sc2c(c1C(=O)NCc1ccco1)CCCC2	inconclusive: 16.4%
Cc1cc(SCC(=O)OC/C(O)=C(\C#N)c2nc3ccccc3[nH]2)c(C)cc1Br	inconclusive: 16.3%
O=C(NC1CCCCC1)C(c1ccc(O)c(O)c1)N(C(=O)Cn1nnc2ccccc21)c1cccc(O)c1 (configuration not stated)	active: 32%
O=C(CSc1nnc(NC(=O)c2ccco2)s1)NC1CCCC1	inconclusive: 18.7%
CCOC(=O)CNC(=S)N(CCCN1CCCCCC1)Cc1cccs1	inactive: -2.66%
COc1ccc(OCc2cc(C(=O)NC3Cc4ccccc4C3)no2)c(Cl)c1	inconclusive: 23.4%

SMILES	activation
COC(=O)c1c(NC(=O)C(=O)NCCCN2CCOCC2)sc2c1CCCC2	inconclusive: 17.7%
Cc1cc(C(F)(F)F)c(C#N)c(SCC(=O)Nc2nc3cc(Br)ccc3s2)n1	active: 37.5%
Cc1ccc(Cn2c(CCNc3nc(-c4ccc(Cl)c([N+](=O)[O-])c4)cs3)nc3cc(C(=O)NCCCO)ccc32)cc1	inconclusive: 24%
CCn1c(COc2cccc(C)c2C)nnc1SCC(=O)Nc1cc(C)on1	inconclusive: 20.1%
N#Cc1ccc(CSc2nnc(NC(=O)CCc3nc4ccccc4c(=O)[nH]3)s2)cc1	inconclusive: 29.9%
O=c1[nH]c(/C=C/c2ccccc2Cl)nc2ccccc12	inconclusive: 19.1%
COc1ccc(-c2cc(C(=O)Nc3c(C)nn(Cc4ccccc4Cl)c3C)no2)cc1	inconclusive: 21.3%
S=c1nc(-c2ccc(Br)cc2)[nH]c2ccccc12	active: 45.4%
COc1ccc(-c2nc(CN3CCN(c4cc(C)nc(C)c4)CC3)c(C)o2)c2ccccc12	inconclusive: 27.2%
O=C(Nc1ccc(Cl)c([N+](=O)[O-])c1)c1ccc(NCCCN2CCOCC2)c([N+](=O)[O-])c1	inconclusive: 18.2%
COC(=O)N(C)c1nc2ccccc2s1	inactive: -0.67%
CCC1Sc2ccc(S(=O)(=O)Nc3ccc(OC)cc3)cc2NC1=O (configuration not stated)	inactive: 0.134%
O=C(Oc1ccc(-c2ccccc2)cc1)c1ccco1	inconclusive: 16.8%
Cc1ccc(CNC(=O)c2ccc(N3CCC4(CC3)CC(c3cccc(Br)c3)=NO4)c(NC(=O)c3ccc(Cl)c([N+](=O)[O-])c3)c2)cc1	inconclusive: 31.4%
O=C1NC[C@H](c2ccccc2)N(CCC23CC4CC(CC(C4)C2)C3)C1=O	inconclusive: 23.2%
CN(c1ccccc1)S(=O)(=O)c1ccc(C(=O)Nc2nnc(C3CC3)s2)cc1	inconclusive: 18.8%
CCc1ccc(OCC(=O)NNC(=O)Cc2c(F)cccc2Cl)cc1	active: 28.6%
CC(C)C/C=C1\CCc2c([nH]c3ccccc23)C1=O	inactive: -15%
Cc1ccc(-c2csc(NC(=O)c3ccc(S(=O)(=O)N4CCc5ccccc54)cc3)n2)cc1	inconclusive: 26.1%
